# In all, about 150,000 compounds went through this assay and about 540 (0.36%) showed an effect of 50% or more. This is one part of the list.
# Test system: Plasmodium falciparum
# Test: Primary screen in NF54 nanoGlo assay, in single point, at 2uM, 72h; a lower Z score goes with more inhibition
# Format: functional, Erythrocyte
# Settings: timepoint 72 hour
Structure (SMILES),% Inhibition [%],Z score
O=C(NCCO)C(=O)Nc1ccc(Br)cc1,-11,1.37
C[C@]1(C(=O)NCC2(N3CCOCC3)CCCCC2)CC1(Cl)Cl,1,-0.11
FC(F)(F)c1ccc(C[C@H]2CCNC2)cc1,-2,0.36
C[C@@H](CO)N1CCN(c2cc(NCC3CC3)ncn2)CC1,-8,1.36
CC(C)(C)OC(=O)N1C[C@H]2CCN(C(=O)CC#N)CC[C@H]2C1,-12,1.32
O=C(COC(=O)COc1ccccc1)NCCc1ccccc1,-2,0.18
COc1ccccc1C(=O)N1CCCN(c2nc(Cc3ccccc3)nc3c2cnn3-c2ccccc2)CC1,8,-1.5
CC(C)n1cc(C#N)c(NC(=O)C[C@H]2CCOc3ccccc32)n1,-9,1.36
Cc1nc(C(F)(F)F)ncc1CN1CCC2(CC1)CNC(=O)O2,0,-0.02
Cc1nc(-c2nc(N(C)C)no2)c(C)s1,-1,0.17
CC[C@H](OC1CCCC1)C(=O)NCC1(O)CCCCC1,-9,1.84
Cc1n[nH]c(C)c1S(=O)(=O)N1CCCN(c2nc(C(F)(F)F)nc3ccccc23)CC1,-7,0.93
Cn1nc(C(C)(C)C)cc1C(=O)N1CCCCC2CCCCC21 (stereo not given),-16,2.19
Cn1cnc2cc(C(=O)NCCOCc3ccc(Cl)cc3)ccc2c1=O,3,-0.46
Cc1c(CC(=O)NC[C@H]2CCOC2)c2c(n1Cc1ccccc1)CCCC2=O,-16,1.58
CCCn1nc(C)nc1-c1ccc(-n2cccn2)cc1,-2,0.34
NC(=O)N1CC[C@H](NC(=O)C#Cc2ccc(C(F)(F)F)cc2)C1,23,-2.34
c1ccc(Cn2ccnc2CCNc2nccn3cnnc23)cc1,-1,0.08
COC(=O)Cn1cc(S(=O)(=O)N2CCCC2)cc1C(=O)OC,14,-1.6
O=C(NCc1nc(CO)cs1)c1ccc(O[C@H]2CC2(F)F)cc1,1,-0.21
COc1ccccc1-c1onc(C)c1C(=O)NCc1cccc(Cl)c1,-13,1.76
CNC(=O)Nc1ccc2nc3n(c(=O)c2c1)CCCC3,6,-0.71

Structure (SMILES),% Inhibition [%],Z score
CC(C)n1ncc(C(=O)N2CCC(C)(CO)CC2)c1C(F)(F)F,4,-0.5
Cc1cc(C)n(-c2ccc(F)cc2CN2CCN(Cc3ccccc3)[C@@H](CCO)C2)n1,-4,0.72
Cc1cc(C)cc(NC(=O)N[C@@H]2CNC(=O)C2)c1,0,-0.01
CCN(C(=O)C1CCCCC1)c1ccccc1C,-6,1.06
Cc1ccc(CN2CCN(C(=O)[C@H]3CCCN(S(C)(=O)=O)CCC(=O)NCC3)CC2)cc1,-15,1.99
COc1ccc(C)cc1-n1c(-c2ccc(O)cc2)n[nH]c1=O,0,-0.03
CC(=O)Nc1cccc(Nc2c(C(=O)N3CCCCCC3)cnc3nc(C)ccc23)c1,-13,1.96
CC(C)[C@@H]1NC(=O)[C@@H](Cc2ccc(O)cc2)NC1=O,-19,2.03
N#Cc1ccc(S(=O)(=O)N2CCCCO2)o1,2,-0.2
CCC(C)NC(=O)C1CCC(c2ccccc2)N(C(=O)NCc2ccccc2)C1 (stereo not given),-7,0.74
C=C(C)CN1CCN(Cc2nc(C)c[nH]2)CC1,-3,0.64
CN1CCN(C[C@@H]2CN(Cc3nc(-c4ccccc4)no3)C[C@@H]2CO)CC1,-16,3.29
CCCS(=O)(=O)NC[C@H](OC)c1ccccc1OC,11,-1.36
COc1cc(OC)c(N2C[C@@H](C(=O)NOCc3ccccc3)CC2=O)cc1Cl,-12,1.56
Cc1cccnc1C[C@H](C)NC(=O)Cn1ccnc1C,-12,2.08
CC[C@@](C)(C#N)NC(=O)c1cc(Cl)ccc1F,-7,1.27
O=C(Nc1ccccc1N1CCCC1=O)c1ccc(S(=O)(=O)N2CCOCC2)cc1,-1,0.12
CN(C(=O)c1ccccc1OCC(N)=O)[C@H]1CCCN(Cc2ccccc2)C1,-12,1.66
CCS(=O)(=O)C1CN(c2ncnc3ccsc23)C1,-1,0.11
COC(=O)Nc1ncc(CN2CCCCC2)s1,-6,0.65
CCn1nccc1C(=O)Nc1ccc2c(c1)C(=O)N(C)C2=O,-4,0.63
O=C(CCC1=Nc2cc(C(F)(F)F)ccc2S(=O)(=O)N1)NCCc1ccc(Cl)cc1,32,-3.59

Structure (SMILES),% Inhibition [%],Z score
COc1cccc(CN2CCCC[C@H]2c2ncc[nH]2)c1F,-15,1.36
CC1(C)CCC(S(=O)(=O)Cc2coc(-c3cccs3)n2)CC1,1,-0.23
Cc1nc(Cn2cccc2C(=O)Nc2cc(Cl)ccc2C)no1,7,-1.15
Cc1nc2ccc(N(C)C(=O)CNC(=O)c3ccsc3)cc2s1,1,-0.15
CC(=O)c1sc(Cc2nc(O)cs2)nc1C,-8,1.09
Cc1[nH]ncc1C(=O)N1CCOc2ccccc2[C@@H]1CO,-12,1.34
CC(C)CC[C@@H](CCNCCN(C)C)c1ccc(Cl)cc1,90,-10.16
O=C(c1ccc(NCC2(CO)CCC2)nc1)N1CCC(N2CCOCC2)CC1,-12,2.13
CCN(CC)[C@H](CNC(=O)COCc1ccc(OC)cc1)Cc1ccccc1,2,-0.23
COc1cccc(CN2CCN(Cc3[nH]cnc3C)[C@@H]3CS(=O)(=O)C[C@@H]32)c1,-1,0.21
Cc1ccc2nc(NC(=O)CC[C@@H]3NC(=O)c4ccccc4NC3=O)sc2c1,-22,2.84
Cc1ccc(NC(=O)c2coc(CN3CCN(Cc4ccc(F)cc4F)CC3)n2)cc1C,-17,2.48
CCc1ocnc1C(=O)N[C@H]1CCCc2occc21,-13,1.3
COc1cccc(Cn2cnc3c4ccccc4n(Cc4cccc(OC)c4)c3c2=O)c1,-8,0.93
COc1ccc(-c2nc(N3CCCCC3)nc3nn(-c4ccc(Cl)c(Cl)c4)c(N)c23)cc1OC,-13,2.06
CCC(C)N(C(=O)c1ccccc1C(=O)N(C(C)CC)C(C)CC)C(C)CC (stereo not given),-8,1.07
CC(C)(C)OC(=O)N1Cc2cnc(N3CCOCC3)nc2C1,-10,1.21
CC1CC(C)CN(S(=O)(=O)c2ccc(C(=O)OCC(=O)N3CC(=O)Nc4ccccc43)cc2)C1 (stereo not given),-16,2.58
CC1(O)CCC(NC(=O)CCCc2ccccc2)CC1 (stereo not given),-20,3.9
Cc1cc(C)c2c(c1)NC(=O)[C@H]2CC(=O)Nn1cnnc1,-2,0.34
N#CCCN(Cc1ccncc1)CC1CC1,-2,0.19
O=C(CC1CCN(C(=O)c2cc3ccccc3[nH]2)CC1)NCc1ccc2c(c1)OCO2,2,-0.19

Structure (SMILES),% Inhibition [%],Z score
C[C@@]1(c2ncnn2-c2ccc3c(c2)OCCO3)CCCO1,-2,0.31
O=C(Nc1cccc(-c2nnco2)c1)c1ccc(F)cc1,-4,0.57
Cc1cccc(NC(=O)c2ccnc(OCC3CCOCC3)c2)n1,-16,3.03
Cc1noc(C)c1CCC(=O)Nc1ccc(N2CCNC(=O)C2)nc1,6,-0.75
O=C1CCC(=O)N1C[C@H](O)Cn1c2ccc(Br)cc2c2cc(Br)ccc21,12,-2.27
CC[C@H](C)N(C)CCNC(=O)c1cccc(F)c1,-6,1.09
CC(C)(C)c1cc(C(=O)Nc2ccn(C(C)(C)C(=O)O)n2)[nH]n1,-1,0.18
CC(NC(=O)[C@@H]1CCCO[C@H]1c1ccnn1C(C)C)c1ccc(F)cc1F (stereo not given in full),4,-0.71
Cc1cnc(C(=O)NCc2ccc(CN3CC(C)CC(C)C3)cc2)cn1 (stereo not given),-15,2.92
O=C(c1ccoc1)N1CCC(C(=O)O)(n2cnc3ccccc32)CC1,-3,0.46
Cc1cc(C)cc(N2CCC(N[C@H]3CCNC3=O)CC2)c1,0,-0.08
C[C@@H](NC(=O)NC1(C(N)=O)CCCCCC1)c1cccc2ccccc12,-1,0.09
COc1ccc(S(=O)(=O)N[C@H]2CCCc3cn(CC(F)(F)F)nc32)cc1,32,-1.59
Cc1cc2ncc(-c3nc([C@H]4CCOC(C)(C)C4)no3)c(C)n2n1,-5,0.67
CC1CN(C(=O)C2CCCc3sc(Nc4ccccc4)nc32)CCO1 (stereo not given),-10,1.04
O=C(CN1C(=O)NC2(CCOCC2)C1=O)NCc1ccc2c(c1)OCO2,7,-0.78
COc1cccnc1CC(=O)Nc1cc(C2CCCCC2)[nH]n1,-9,1.42
CCc1ccc(OCCN2CCCS2(=O)=O)cc1,-15,2.05
O=C(C1CCN(c2nnc3ccc(Cl)cn23)CC1)N1CCOCC1,-11,1.15

# Source: ChEMBL document CHEMBL4888484, “Replenishing the malaria drug discovery pipeline: Screening and hit evaluation of the MMV Hit Generation Library 1 (HGL1) against asexual blood stage Plasmodium falciparum ,using a nano luciferase reporter read-out” (2022)
